From patent US4452787A, “1-Substituted tricyclic quinazolinones having biological activity as tranquilizers” (Sandoz, Inc., priority 1982, dated 1984)

System: benzodiazepine receptors
Test: Flunitrazepam Receptor Binding Assay, FBA Test No. 1 and FBA Test No. 2 (range of both)
Details: range represents the results when both FBA Test No. 1 and FBA Test No. 2 were employed

Row | SMILES | Response - % of Control
1 | O=c1c2cc(Cl)ccc2nc2n1CCN2Cc1ccccc1Cl [Example 1, 1-(o-chlorobenzyl)-7-chloro-2,3-dihydro-imidazo[2,1-b]quinazolin-5(1H)-one] | 2-3 % of Control
2 | O=c1c2cc(Cl)ccc2nc2n1CCN2c1ccc(F)cc1 [Example 3A] | 8-18 % of Control
3 | O=c1c2cc(Cl)ccc2nc2n1CCCN2Cc1ccccc1 [Example 4A] | 1-2.6 % of Control
